Assay results from the supplement of paper PMC8728848.
Some of the results follow.

Key:
Assay in all cases: glycan array binding signal (z-score within array); higher = stronger binding
Conditions in all cases: glycan notation: IUPAC condensed, linker removed
[1] = target: Fuc(a1-3)[Gal3S(b1-4)]GlcNAc6S
Method in brief: (§1)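 Arrays were curated from the Consortium for Functional Glycomics database, 3228 in total, and kept only where the protein sequence was available. Binding is expressed as a within-array Z-score. This score was averaged across arrays of the same protein sequence at different concentrations or buffers and across linkers, and negative values can be read as non-binding.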

[2] = target: Fuc(a1-3)[GalNAc(b1-4)]GlcNAc
Method in brief: as §1

[3] = target: Fuc(a1-3)[GalNAc(b1-4)]GlcNAc6S
Method in brief: as §1

Fuc(a1-4)GlcNAc = target: Fuc(a1-4)GlcNAc
Method in brief: as §1

Fuc(b1-3)GlcNAc = target: Fuc(b1-3)GlcNAc
Method in brief: as §1

Gal(a1-2)Gal = target: Gal(a1-2)Gal
Method in brief: as §1

Gal(a1-3)Gal = target: Gal(a1-3)Gal
Method in brief: as §1

Gal(a1-3)Gal(b1-3)GlcNAc = target: Gal(a1-3)Gal(b1-3)GlcNAc
Method in brief: as §1

[4] = target: Gal(a1-3)Gal(b1-3)GlcNAc(b1-2)Man
Method in brief: as §1

[5] = target: Gal(a1-3)Gal(b1-3)GlcNAc(b1-2)Man(a1-3)[Gal(a1-3)Gal(b1-3)GlcNAc(b1-2)Man(a1-6)]Man(b1-4)GlcNAc(b1-4)GlcNAc
Method in brief: as §1

[6] = target: Gal(a1-3)Gal(b1-3)GlcNAc(b1-3)GalNAc
Method in brief: as §1

[7] = target: Gal(a1-3)Gal(b1-3)GlcNAc(b1-6)GalNAc
Method in brief: as §1

[8] = target: Gal(a1-3)Gal(b1-3)[Fuc(a1-4)]GlcNAc(b1-2)Man(a1-3)[Gal(a1-3)Gal(b1-3)[Fuc(a1-4)]GlcNAc(b1-2)Man(a1-6)]Man(b1-4)GlcNAc(b1-4)GlcNAc
Method in brief: as §1

Gal(a1-3)Gal(b1-4)Glc = target: Gal(a1-3)Gal(b1-4)Glc
Method in brief: as §1

Gal(a1-3)Gal(b1-4)GlcNAc = target: Gal(a1-3)Gal(b1-4)GlcNAc
Method in brief: as §1

[9] = target: Gal(a1-3)Gal(b1-4)GlcNAc(b1-2)Man
Method in brief: as §1

[10] = target: Gal(a1-3)Gal(b1-4)GlcNAc(b1-2)Man(a1-3)[Gal(a1-3)Gal(b1-4)GlcNAc(b1-2)Man(a1-6)]Man(b1-4)GlcNAc(b1-4)GlcNAc
Method in brief: as §1

[11] = target: Gal(a1-3)Gal(b1-4)GlcNAc(b1-3)GalNAc
Method in brief: as §1

[12] = target: Gal(a1-3)Gal(b1-4)GlcNAc(b1-6)GalNAc
Method in brief: as §1

[13] = target: Gal(a1-3)Gal(b1-4)[Fuc(a1-3)]GlcNAc
Method in brief: as §1

[14] = target: Gal(a1-3)Gal(b1-4)[Fuc(a1-3)]GlcNAc(b1-2)Man(a1-3)[Gal(a1-3)Gal(b1-4)[Fuc(a1-3)]GlcNAc(b1-2)Man(a1-6)]Man(b1-4)GlcNAc(b1-4)GlcNAc
Method in brief: as §1

Gal(a1-3)GalNAc = target: Gal(a1-3)GalNAc
Method in brief: as §1

[15] = target: Gal(a1-3)[Gal(a1-4)]Gal(b1-4)GlcNAc
Method in brief: as §1

[16] = target: Gal(a1-4)Gal(b1-3)GlcNAc(b1-2)Man(a1-3)[Gal(a1-4)Gal(b1-3)GlcNAc(b1-2)Man(a1-6)]Man(b1-4)GlcNAc(b1-4)GlcNAc
Method in brief: as §1

Gal(a1-4)Gal(b1-4)Glc = target: Gal(a1-4)Gal(b1-4)Glc
Method in brief: as §1

Gal(a1-4)Gal(b1-4)GlcNAc = target: Gal(a1-4)Gal(b1-4)GlcNAc
Method in brief: as §1

[17] = target: Gal(a1-4)Gal(b1-4)GlcNAc(b1-2)Man(a1-3)[Gal(a1-4)Gal(b1-4)GlcNAc(b1-2)Man(a1-6)]Man(b1-4)GlcNAc(b1-4)GlcNAc
Method in brief: as §1

[18] = target: Gal(a1-4)Gal(b1-4)GlcNAc(b1-3)Gal(b1-4)Glc
Method in brief: as §1

Gal(a1-4)GlcNAc = target: Gal(a1-4)GlcNAc
Method in brief: as §1

Gal(a1-6)Glc = target: Gal(a1-6)Glc
Method in brief: as §1

Gal(b1-2)Gal = target: Gal(b1-2)Gal
Method in brief: as §1

Gal(b1-3)Gal = target: Gal(b1-3)Gal
Method in brief: as §1

Gal(b1-3)Gal(b1-4)GlcNAc = target: Gal(b1-3)Gal(b1-4)GlcNAc
Method in brief: as §1

Gal(b1-3)GalNAc = target: Gal(b1-3)GalNAc
Method in brief: as §1

[19] = target: Gal(b1-3)GalNAc(a1-3)[Fuc(a1-2)]Gal(b1-4)Glc
Method in brief: as §1

[20] = target: Gal(b1-3)GalNAc(a1-3)[Fuc(a1-2)]Gal(b1-4)GlcNAc
Method in brief: as §1

Gal(b1-3)GalNAc(b1-3)Gal = target: Gal(b1-3)GalNAc(b1-3)Gal
Method in brief: as §1

B1: PX14375l-pdi-526-25-526 (Parabacteroides distasonis) (protein)
chain: DEEPKSTLTDVAYYKTQSQMESNVNYLYRTGAIGSYVDFGSAYIGPFASIQEELTGYFSNSYEGQEIVCRYTRELTRQQNTMQLASKMDKVWDDCYRGINVANGAIKHMPEVPMDQATADRLTAEAKFFRAFNYFYLVKTFGAVPFYTDPYELAENMELPRTETSTIYNQIESDLKDAMNVLPEATFAANGHRITKYVAAMTLTDVYMYQHKYAEAAETVRIVVNSNHKLTTNDDLAMNSAFNKLRSTDDLDEAIYAYEYDNQISPSNWLPTYAFDGDASSNGLFGTYAITQKVHGPNDRYLNIYESNDLRRQPNQFYHWTYTNPKTGKVWNSVGNAACCWYYYDEDALLTTGRGTKDWNVYRYAEALLDAAESIAQSTGVTAEAAGYLAQVKARANMEGKTAAEIASSLQSMGKQAFIEECWTERLRELPLEFKMWDMCVRTGMFPNISETTPGQVTYIPLVGAKNASGATIKESDLLWPLSVNEIQRNPSLTQNEGYSAK
[1]
  glycan array binding signal (z-score): -0.018
[2]
  glycan array binding signal (z-score): 0.014
[3]
  glycan array binding signal (z-score): -0.238
Fuc(a1-4)GlcNAc
  glycan array binding signal (z-score): 0.026
Fuc(b1-3)GlcNAc
  glycan array binding signal (z-score): -0.225
Gal(a1-2)Gal
  glycan array binding signal (z-score): -0.023
Gal(a1-3)Gal
  glycan array binding signal (z-score): -0.181
Gal(a1-3)Gal(b1-3)GlcNAc
  glycan array binding signal (z-score): 0.682
[4]
  glycan array binding signal (z-score): 0.003
[5]
  glycan array binding signal (z-score): 0.345
[6]
  glycan array binding signal (z-score): -0.092
[7]
  glycan array binding signal (z-score): -0.201
[8]
  glycan array binding signal (z-score): 0.104
Gal(a1-3)Gal(b1-4)Glc
  glycan array binding signal (z-score): -0.297
Gal(a1-3)Gal(b1-4)GlcNAc
  glycan array binding signal (z-score): -0.203
[9]
  glycan array binding signal (z-score): -0.148
[10]
  glycan array binding signal (z-score): 0.174
[11]
  glycan array binding signal (z-score): -0.256
[12]
  glycan array binding signal (z-score): -0.04
[13]
  glycan array binding signal (z-score): -0.3
[14]
  glycan array binding signal (z-score): 1.28
Gal(a1-3)GalNAc
  glycan array binding signal (z-score): -0.043
[15]
  glycan array binding signal (z-score): 0.562
[16]
  glycan array binding signal (z-score): 0.198
Gal(a1-4)Gal(b1-4)Glc
  glycan array binding signal (z-score): -0.305
Gal(a1-4)Gal(b1-4)GlcNAc
  glycan array binding signal (z-score): -0.194
[17]
  glycan array binding signal (z-score): 1.19
[18]
  glycan array binding signal (z-score): -0.084
Gal(a1-4)GlcNAc
  glycan array binding signal (z-score): -0.175
Gal(a1-6)Glc
  glycan array binding signal (z-score): -0.362
Gal(b1-2)Gal
  glycan array binding signal (z-score): -0.209
Gal(b1-3)Gal
  glycan array binding signal (z-score): 0.137
Gal(b1-3)Gal(b1-4)GlcNAc
  glycan array binding signal (z-score): -0.206
Gal(b1-3)GalNAc
  glycan array binding signal (z-score): -0.27
[19]
  glycan array binding signal (z-score): -0.233
[20]
  glycan array binding signal (z-score): -0.31
Gal(b1-3)GalNAc(b1-3)Gal
  glycan array binding signal (z-score): -0.407
